Measured values taken from article PMC8529494.
Changes are numbered by the printed parent chain. Names and notes keep the numbering of the source. Results are given in words; binding and its absence hold for the method and conditions named. Binding seen in cells or lysates may run through a third protein. Some binding calls cover weakened binding; strength is not graded here. For some of these results: Where a sequence is shown, tags or fusion partners need not be part of it.

By UniProt entry, the sequences of proteins in these tests, tags left out. Where a name states a change or a piece, a line headed by the entry shows the natural chain unless it says otherwise. Chains listed by the source or under a name are the forms on record and can include a tag or linker.
UniProt P84022: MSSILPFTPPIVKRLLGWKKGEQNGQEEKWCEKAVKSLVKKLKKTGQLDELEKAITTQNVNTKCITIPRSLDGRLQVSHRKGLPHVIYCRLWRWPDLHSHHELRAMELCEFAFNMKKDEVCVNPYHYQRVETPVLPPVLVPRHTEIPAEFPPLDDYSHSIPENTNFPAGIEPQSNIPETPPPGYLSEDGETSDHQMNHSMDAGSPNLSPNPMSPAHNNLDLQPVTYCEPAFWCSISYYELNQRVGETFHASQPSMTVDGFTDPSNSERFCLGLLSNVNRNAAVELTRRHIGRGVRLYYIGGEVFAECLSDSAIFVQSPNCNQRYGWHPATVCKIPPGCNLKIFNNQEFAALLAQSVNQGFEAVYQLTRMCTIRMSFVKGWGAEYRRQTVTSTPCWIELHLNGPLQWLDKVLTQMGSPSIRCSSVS
HA-tagged SMAD3 K20/117Q (2KQ), overexpressed in MDA-MB-231 and BT-549 cells (P84022, form named): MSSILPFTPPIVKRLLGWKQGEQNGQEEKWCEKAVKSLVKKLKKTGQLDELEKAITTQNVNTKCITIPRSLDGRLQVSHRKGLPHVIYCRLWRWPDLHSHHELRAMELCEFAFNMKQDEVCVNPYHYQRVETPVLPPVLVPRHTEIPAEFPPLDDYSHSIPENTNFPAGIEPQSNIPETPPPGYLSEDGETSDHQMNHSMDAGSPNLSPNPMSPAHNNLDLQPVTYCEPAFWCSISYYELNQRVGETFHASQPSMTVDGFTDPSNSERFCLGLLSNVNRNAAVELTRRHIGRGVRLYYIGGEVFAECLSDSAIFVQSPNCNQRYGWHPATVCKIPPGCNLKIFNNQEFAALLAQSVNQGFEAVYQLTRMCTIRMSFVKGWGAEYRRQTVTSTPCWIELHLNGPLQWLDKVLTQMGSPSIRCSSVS
HA-tagged SMAD3 K20/117R (2KR), overexpressed in MDA-MB-231 and BT-549 cells (P84022, form named): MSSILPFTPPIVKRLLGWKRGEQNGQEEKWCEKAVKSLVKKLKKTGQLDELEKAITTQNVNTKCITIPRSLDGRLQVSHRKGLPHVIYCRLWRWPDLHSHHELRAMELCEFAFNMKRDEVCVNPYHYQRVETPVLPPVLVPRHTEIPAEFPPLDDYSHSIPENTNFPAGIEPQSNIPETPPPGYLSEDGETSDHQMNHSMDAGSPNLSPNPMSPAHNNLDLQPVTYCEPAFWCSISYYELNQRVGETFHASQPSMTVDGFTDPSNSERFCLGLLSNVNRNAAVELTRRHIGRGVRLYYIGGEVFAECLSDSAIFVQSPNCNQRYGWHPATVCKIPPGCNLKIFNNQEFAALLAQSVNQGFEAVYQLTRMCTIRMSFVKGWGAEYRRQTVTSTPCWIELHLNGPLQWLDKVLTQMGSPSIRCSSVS
UniProt Q15796: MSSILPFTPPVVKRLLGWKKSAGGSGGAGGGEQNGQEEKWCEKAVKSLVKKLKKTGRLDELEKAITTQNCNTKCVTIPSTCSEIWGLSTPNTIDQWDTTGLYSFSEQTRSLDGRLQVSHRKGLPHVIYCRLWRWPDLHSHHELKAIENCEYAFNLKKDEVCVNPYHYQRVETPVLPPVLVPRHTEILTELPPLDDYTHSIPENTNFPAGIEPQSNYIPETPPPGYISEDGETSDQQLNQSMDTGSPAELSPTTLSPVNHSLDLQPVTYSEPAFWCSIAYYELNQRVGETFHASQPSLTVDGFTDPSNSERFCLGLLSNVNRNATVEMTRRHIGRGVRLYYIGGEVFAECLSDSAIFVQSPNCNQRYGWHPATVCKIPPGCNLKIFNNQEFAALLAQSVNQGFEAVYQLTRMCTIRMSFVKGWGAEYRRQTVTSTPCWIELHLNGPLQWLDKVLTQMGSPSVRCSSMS
UniProt Q13485: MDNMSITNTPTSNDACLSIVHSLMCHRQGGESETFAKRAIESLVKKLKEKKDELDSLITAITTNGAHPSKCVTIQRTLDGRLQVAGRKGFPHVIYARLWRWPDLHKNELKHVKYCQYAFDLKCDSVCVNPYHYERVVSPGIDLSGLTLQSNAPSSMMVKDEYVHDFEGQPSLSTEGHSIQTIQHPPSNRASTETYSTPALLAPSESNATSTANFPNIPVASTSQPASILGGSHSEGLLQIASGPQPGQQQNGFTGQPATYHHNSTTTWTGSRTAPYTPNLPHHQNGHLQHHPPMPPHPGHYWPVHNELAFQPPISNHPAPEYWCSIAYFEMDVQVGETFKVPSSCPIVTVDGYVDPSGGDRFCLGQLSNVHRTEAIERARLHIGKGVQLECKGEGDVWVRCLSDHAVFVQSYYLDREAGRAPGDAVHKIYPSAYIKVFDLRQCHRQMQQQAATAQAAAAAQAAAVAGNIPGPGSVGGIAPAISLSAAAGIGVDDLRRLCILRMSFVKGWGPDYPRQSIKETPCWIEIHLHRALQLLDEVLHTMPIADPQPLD

B1: Flag-TRIM24 WT, exogenous, in MDA-MB-231 and BT-549 cells (protein, UniProt O15164 1-1050)
chain: MEVAVEKAVAAAAAASAAASGGPSAAPSGENEAESRQGPDSERGGEAARLNLLDTCAVCHQNIQSRAPKLLPCLHSFCQRCLPAPQRYLMLPAPMLGSAETPPPVPAPGSPVSGSSPFATQVGVIRCPVCSQECAERHIIDNFFVKDTTEVPSSTVEKSNQVCTSCEDNAEANGFCVECVEWLCKTCIRAHQRVKFTKDHTVRQKEEVSPEAVGVTSQRPVFCPFHKKEQLKLYCETCDKLTCRDCQLLEHKEHRYQFIEEAFQNQKVIIDTLITKLMEKTKYIKFTGNQIQNRIIEVNQNQKQVEQDIKVAIFTLMVEINKKGKALLHQLESLAKDHRMKLMQQQQEVAGLSKQLEHVMHFSKWAVSSGSSTALLYSKRLITYRLRHLLRARCDASPVTNNTIQFHCDPSFWAQNIINLGSLVIEDKESQPQMPKQNPVVEQNSQPPSGLSSNQLSKFPTQISLAQLRLQHMQQQVMAQRQQVQRRPAPVGLPNPRMQGPIQQPSISHQQPPPRLINFQNHSPKPNGPVLPPHPQQLRYPPNQNIPRQAIKPNPLQMAFLAQQAIKQWQISSGQGTPSTTNSTSSTPSSPTITSAAGYDGKAFGSPMIDLSSPVGGSYNLPSLPDIDCSSTIMLDNIVRKDTNIDHGQPRPPSNRTVQSPNSSVPSPGLAGPVTMTSVHPPIRSPSASSVGSRGSSGSSSKPAGADSTHKVPVVMLEPIRIKQENSGPPENYDFPVVIVKQESDEESRPQNANYPRSILTSLLLNSSQSSTSEETVLRSDAPDSTGDQPGLHQDNSSNGKSEWLDPSQKSPLHVGETRKEDDPNEDWCAVCQNGGELLCCEKCPKVFHLSCHVPTLTNFPSGEWICTFCRDLSKPEVEYDCDAPSHNSEKKKTEGLVKLTPIDKRKCERLLLFLYCHEMSLAFQDPVPLTVPDYYKIIKNPMDLSTIKKRLQEDYSMYSKPEDFVADFRLIFQNCAEFNEPDSEVANAGIKLENYFEELLKNLYPEKRFPKPEFRNESEDNKFSDDSDDDFVQPRKKRLKSIEERQLLK
B2: TRIM24 in HEK293T cells (protein, UniProt O15164 1-1050)
chain: B1 chain
B3: TRIM33 in HEK293T cells (protein, UniProt Q9UPN9 1-1127)
chain: MAENKGGGEAESGGGGSGSAPVTAGAAGPAAQEAEPPLTAVLVEEEEEEGGRAGAEGGAAGPDDGGVAAASSGSAQAASSPAASVGTGVAGGAVSTPAPAPASAPAPGPSAGPPPGPPASLLDTCAVCQQSLQSRREAEPKLLPCLHSFCLRCLPEPERQLSVPIPGGSNGDIQQVGVIRCPVCRQECRQIDLVDNYFVKDTSEAPSSSDEKSEQVCTSCEDNASAVGFCVECGEWLCKTCIEAHQRVKFTKDHLIRKKEDVSESVGASGQRPVFCPVHKQEQLKLFCETCDRLTCRDCQLLEHKEHRYQFLEEAFQNQKGAIENLLAKLLEKKNYVHFAATQVQNRIKEVNETNKRVEQEIKVAIFTLINEINKKGKSLLQQLENVTKERQMKLLQQQNDITGLSRQVKHVMNFTNWAIASGSSTALLYSKRLITFQLRHILKARCDPVPAANGAIRFHCDPTFWAKNVVNLGNLVIESKPAPGYTPNVVVGQVPPGTNHISKTPGQINLAQLRLQHMQQQVYAQKHQQLQQMRMQQPPAPVPTTTTTTQQHPRQAAPQMLQQQPPRLISVQTMQRGNMNCGAFQAHQMRLAQNAARIPGIPRHSGPQYSMMQPHLQRQHSNPGHAGPFPVVSVHNTTINPTSPTTATMANANRGPTSPSVTAIELIPSVTNPENLPSLPDIPPIQLEDAGSSSLDNLLSRYISGSHLPPQPTSTMNPSPGPSALSPGSSGLSNSHTPVRPPSTSSTGSRGSCGSSGRTAEKTSLSFKSDQVKVKQEPGTEDEICSFSGGVKQEKTEDGRRSACMLSSPESSLTPPLSTNLHLESELDALASLENHVKIEPADMNESCKQSGLSSLVNGKSPIRSLMHRSARIGGDGNNKDDDPNEDWCAVCQNGGDLLCCEKCPKVFHLTCHVPTLLSFPSGDWICTFCRDIGKPEVEYDCDNLQHSKKGKTAQGLSPVDQRKCERLLLYLYCHELSIEFQEPVPASIPNYYKIIKKPMDLSTVKKKLQKKHSQHYQIPDDFVADVRLIFKNCERFNEMMKVVQVYADTQEINLKADSEVAQAGKAVALYFEDKLTEIYSDRTFAPLPEFEQEEDDGEVTEDSDEDFIQPRRKRLKSDERPVHIK
B4: TRIM24 in MDA-MB-231 and BT-549 cells (protein, UniProt O15164 1-1050)
chain: B1 chain
B5: TRIM33 in MDA-MB-231 and BT-549 cells (protein, UniProt Q9UPN9 1-1127)
chain: B3 chain
B6: Flag-TRIM24 F979A/N980A mutant (protein, UniProt O15164 1-1050)
chain: B1 chain with F979A, N980A

Key:
[1] = biological target: SMAD3, endogenous (human (endogenous in MDA-MB-231 and BT-549)) (UniProt P84022); assay: co-IP; IP and western blot of MDA-MB-231 and BT-549 cells (Figure 4A with TGF-β1 and TRIM24 overexpression; Figure 4E with SMAD3 WT, 2KQ or 2KR; Figure 4F MDA-MB-231/tetO-shKAT6A with or without Dox; Figure 4G MDA-MB-231)
[2] = biological target: SMAD2 in HEK293T cells (UniProt Q15796); assay: co-IP; IP and western blot of HEK293T cells (Figure 4C stimulated by TGF-β1; Figure 4D SMAD3 WT, 2KQ or 2KR)
[3] = biological target: SMAD3 K20/117Q, acetylation-mimetic mutant, in HEK293T cells (UniProt P84022); assay: as above
[4] = biological target: SMAD3 K20/117R, acetylation-deficient mutant, in HEK293T cells (UniProt P84022); assay: as above
[5] = biological target: SMAD3 wild type, exogenous, in HEK293T cells (UniProt P84022); assay: as above
[6] = biological target: SMAD4 in HEK293T cells (UniProt Q13485); assay: as above
[7] = biological target: HA-tagged SMAD3 K20/117Q (2KQ), overexpressed in MDA-MB-231 and BT-549 cells (UniProt P84022); assay: co-IP; IP and western blot of MDA-MB-231 and BT-549 cells (Figure 4A with TGF-β1 and TRIM24 overexpression; Figure 4E with SMAD3 WT, 2KQ or 2KR; Figure 4F MDA-MB-231/tetO-shKAT6A with or without Dox; Figure 4G MDA-MB-231)
[8] = biological target: HA-tagged SMAD3 K20/117R (2KR), overexpressed in MDA-MB-231 and BT-549 cells (UniProt P84022); assay: as above
[9] = biological target: HA-tagged SMAD3 WT, overexpressed in MDA-MB-231 and BT-549 cells (UniProt P84022); assay: as above

| Binder | binding [1] | binding [4] | binding [5] | binding [8] | binding [9] | also measured |
| --- | --- | --- | --- | --- | --- | --- |
| B1 | binds | – | – | – | – | – |
| B2 | – | binds | binds | – | – | binding [2]: no binding; binding [3]: binds; binding [6]: no binding |
| B3 | – | binds | binds | – | – | – |
| B4 | binds | – | – | binds | binds | binding [7]: binds |
| B5 | binds | – | – | binds | binds | – |
| B6 | binds | – | – | – | – | – |
